Paper PMC12820563, “FoxP3 forms a head-to-head dimer in vivo and stabilizes its multimerization on adjacent microsatellites”
This is one part of the list.

Target: T1, MBP-FoxP1dN (Mus musculus, UniProt P58462 326-579)
T1 sequence: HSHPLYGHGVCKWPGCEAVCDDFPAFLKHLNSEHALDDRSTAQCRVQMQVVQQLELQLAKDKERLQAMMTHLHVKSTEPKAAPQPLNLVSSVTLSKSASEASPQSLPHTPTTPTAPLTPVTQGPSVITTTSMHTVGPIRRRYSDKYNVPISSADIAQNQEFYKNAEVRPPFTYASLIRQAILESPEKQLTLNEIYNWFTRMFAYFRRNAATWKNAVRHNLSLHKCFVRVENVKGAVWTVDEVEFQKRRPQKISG
Assay: PD-seq (MBP pull-down with sequencing); 20 mM Tris-HCl pH 7.5, 100 mM NaCl, 1.5 mM MgCl2, 0.4 uM protein, 0.1 uM dsDNA library, 30 min, room temperature, amylose pull-down; high values mean tight binding
Conditions: protein: recombinant; tags: His6-MBP; chain copies: 2; dsDNA, one strand shown
Summary of the method: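 Binding is the reads-per-million enrichment of pull-down relative to input, pooled across replicates. For this, 0.4 µM His6-MBP-tagged mouse FoxP3 or FoxP1 fragment lacking the N-terminus, made in E. coli, was incubated with 0.1 µM Klenow-filled double-stranded degenerate DNA library for 30 min at room temperature in Tris pH 7.5 buffer with NaCl and MgCl2. Complexes bound to amylose resin were washed three times before proteinase K released the DNA for PCR barcoding and Illumina sequencing.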

Sequence	binding signal
GATGATTGTTCTCCCAGCTGATGAATTTCCTTCGTCGAGTAAACAAATTTTCCTAATCTTTCTGTTCAAGCGCCATCTAC	0.851 RPM ratio (pull-down/input)
GATGATTGTTCTCCCAGCTGATGAATTCGCGGACTCGAGTAAACAAATTTTCCTAATCTTTCTGTTCAAGCGCCATCTAC	0.757 RPM ratio (pull-down/input)
GATGATTGTTCTCCCAGCTGATGAATTCCCTTGCTCGAGTAAACAAATTTTCCTAATCTTTCTGTTCAAGCGCCATCTAC	0.789 RPM ratio (pull-down/input)
GATGATTGTTCTCCCAGCTGATGAATTCAGAAAATCGAGTAAACAAATTTTCCTAATCTTTCTGTTCAAGCGCCATCTAC	0.977 RPM ratio (pull-down/input)
GATGATTGTTCTCCCAGCTGATGAATTAAAACTCTCGAGTAAACAAATTTTCCTAATCTTTCTGTTCAAGCGCCATCTAC	0.854 RPM ratio (pull-down/input)
GATGATTGTTCTCCCAGCTGATGAATTCCATTTATCGAGTAAACAAATTTTCCTAATCTTTCTGTTCAAGCGCCATCTAC	1.13 RPM ratio (pull-down/input)
GATGATTGTTCTCCCAGCTGATGAATTTGCCGCCTCGAGTAAACAAATTTTCCTAATCTTTCTGTTCAAGCGCCATCTAC	0.901 RPM ratio (pull-down/input)
GATGATTGTTCTCCCAGCTGATGAATTCCACACATCGAGTAAACAAATTTTCCTAATCTTTCTGTTCAAGCGCCATCTAC	1.06 RPM ratio (pull-down/input)
GATGATTGTTCTCCCAGCTGATGAATTATGAGCTTCGAGTAAACAAATTTTCCTAATCTTTCTGTTCAAGCGCCATCTAC	0.932 RPM ratio (pull-down/input)
GATGATTGTTCTCCCAGCTGATGAATTGCAAAATTCGAGTAAACAAATTTTCCTAATCTTTCTGTTCAAGCGCCATCTAC	1.43 RPM ratio (pull-down/input)
GATGATTGTTCTCCCAGCTGATGAATTGGACGAGTCGAGTAAACAAATTTTCCTAATCTTTCTGTTCAAGCGCCATCTAC	0.758 RPM ratio (pull-down/input)
GATGATTGTTCTCCCAGCTGATGAATTGGCTTCCTCGAGTAAACAAATTTTCCTAATCTTTCTGTTCAAGCGCCATCTAC	0.842 RPM ratio (pull-down/input)
GATGATTGTTCTCCCAGCTGATGAATTAAACGACTCGAGTAAACAAATTTTCCTAATCTTTCTGTTCAAGCGCCATCTAC	0.802 RPM ratio (pull-down/input)
GATGATTGTTCTCCCAGCTGATGAATTCGCGCTCTCGAGTAAACAAATTTTCCTAATCTTTCTGTTCAAGCGCCATCTAC	0.8 RPM ratio (pull-down/input)
GATGATTGTTCTCCCAGCTGATGAATTCCTCATCTCGAGTAAACAAATTTTCCTAATCTTTCTGTTCAAGCGCCATCTAC	0.754 RPM ratio (pull-down/input)
GATGATTGTTCTCCCAGCTGATGAATTTGGCTCGTCGAGTAAACAAATTTTCCTAATCTTTCTGTTCAAGCGCCATCTAC	0.818 RPM ratio (pull-down/input)

Sequence	binding signal
GATGATTGTTCTCCCAGCTGATGAATTAGAGGAGTCGAGTAAACAAATTTTCCTAATCTTTCTGTTCAAGCGCCATCTAC	0.822 RPM ratio (pull-down/input)
GATGATTGTTCTCCCAGCTGATGAATTCAGCGAATCGAGTAAACAAATTTTCCTAATCTTTCTGTTCAAGCGCCATCTAC	0.907 RPM ratio (pull-down/input)
GATGATTGTTCTCCCAGCTGATGAATTAGTTCCCTCGAGTAAACAAATTTTCCTAATCTTTCTGTTCAAGCGCCATCTAC	1.02 RPM ratio (pull-down/input)
GATGATTGTTCTCCCAGCTGATGAATTGAATATATCGAGTAAACAAATTTTCCTAATCTTTCTGTTCAAGCGCCATCTAC	1.04 RPM ratio (pull-down/input)
GATGATTGTTCTCCCAGCTGATGAATTTAGCTCCTCGAGTAAACAAATTTTCCTAATCTTTCTGTTCAAGCGCCATCTAC	0.946 RPM ratio (pull-down/input)
GATGATTGTTCTCCCAGCTGATGAATTTTCCCCTTCGAGTAAACAAATTTTCCTAATCTTTCTGTTCAAGCGCCATCTAC	0.881 RPM ratio (pull-down/input)
GATGATTGTTCTCCCAGCTGATGAATTCAGGTTTTCGAGTAAACAAATTTTCCTAATCTTTCTGTTCAAGCGCCATCTAC	1.05 RPM ratio (pull-down/input)
GATGATTGTTCTCCCAGCTGATGAATTTGTCGGCTCGAGTAAACAAATTTTCCTAATCTTTCTGTTCAAGCGCCATCTAC	0.872 RPM ratio (pull-down/input)
GATGATTGTTCTCCCAGCTGATGAATTTGGTAAGTCGAGTAAACAAATTTTCCTAATCTTTCTGTTCAAGCGCCATCTAC	1.01 RPM ratio (pull-down/input)
GATGATTGTTCTCCCAGCTGATGAATTGTCCAGCTCGAGTAAACAAATTTTCCTAATCTTTCTGTTCAAGCGCCATCTAC	0.895 RPM ratio (pull-down/input)
GATGATTGTTCTCCCAGCTGATGAATTCTGTTAATCGAGTAAACAAATTTTCCTAATCTTTCTGTTCAAGCGCCATCTAC	1.09 RPM ratio (pull-down/input)
GATGATTGTTCTCCCAGCTGATGAATTTCTCAAGTCGAGTAAACAAATTTTCCTAATCTTTCTGTTCAAGCGCCATCTAC	0.832 RPM ratio (pull-down/input)
GATGATTGTTCTCCCAGCTGATGAATTTAAATTGTCGAGTAAACAAATTTTCCTAATCTTTCTGTTCAAGCGCCATCTAC	1.07 RPM ratio (pull-down/input)
GATGATTGTTCTCCCAGCTGATGAATTATAGGGCTCGAGTAAACAAATTTTCCTAATCTTTCTGTTCAAGCGCCATCTAC	0.796 RPM ratio (pull-down/input)
GATGATTGTTCTCCCAGCTGATGAATTACGGGTGTCGAGTAAACAAATTTTCCTAATCTTTCTGTTCAAGCGCCATCTAC	0.905 RPM ratio (pull-down/input)
